# This is one part of the list. The energies were worked out here from pooled read counts, against the library average; single values are noisy.
# Target: T1, Pho4 (S. cerevisiae) (UniProt P07270)
# T1 sequence: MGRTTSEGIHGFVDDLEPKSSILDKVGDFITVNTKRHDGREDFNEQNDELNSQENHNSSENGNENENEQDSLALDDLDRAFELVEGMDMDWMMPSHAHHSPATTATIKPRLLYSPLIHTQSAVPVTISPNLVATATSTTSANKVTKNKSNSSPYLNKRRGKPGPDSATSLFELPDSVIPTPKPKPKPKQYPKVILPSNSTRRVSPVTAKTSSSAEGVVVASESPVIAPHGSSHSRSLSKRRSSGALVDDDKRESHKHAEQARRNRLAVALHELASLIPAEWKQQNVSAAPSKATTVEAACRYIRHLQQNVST
# Assay: relative binding free energy (BET-seq); higher = weaker binding
# Settings: reference: library average
row,Sequence,relative binding free energy [kcal/mol]
1,CGGTGCACGTGGAGCG,-0.11
2,TAAATCACGTGCTTGT,0.05
3,AATGACACGTGTTAAG,0.02
4,CTGTGCACGTGTATTT,-0.08
5,GTTCTCACGTGTAGGT,0.22
6,ATATACACGTGTTTCT,-0.05
7,TGGAGCACGTGGGCAC,-0.1
8,CGTCGCACGTGGGAGG,-0.12
9,GAATACACGTGGGTAG,-0.05
10,TACCGCACGTGGGTTG,-0.05
11,CTCGTCACGTGTTGGG,0.07
12,GGGATCACGTGGAGAT,0.15
13,CCGTTCACGTGTTGTT,0.19
14,AAGGGCACGTGTCGGG,0.05
15,TGTGTCACGTGGATCG,0.13
16,GGCGGCACGTGGATGC,0
17,TACGTCACGTGACGGG,0.15
18,CATGGCACGTGGCGTG,-0.09
19,GGGGCCACGTGGGAGA,-0.13
20,GGGAGCACGTGGTGTT,-0.02
21,TGCTGCACGTGTCTGG,-0.05
22,ATTTGCACGTGAGCGA,0.23
23,TGCGGCACGTGTGCTA,-0.04
24,ATTGTCACGTGTTAGG,0.09
25,CCCGGCACGTGGGGGG,-0.34

row,Sequence,relative binding free energy [kcal/mol]
1,GGAGGCACGTGGGACA,-0.2
2,GTAGGCACGTGCTTGG,-0.02
3,CTGGGCACGTGCTGAG,-0.18
4,TCGTGCACGTGTAGTT,-0.09
5,AGGTGCACGTGGTACA,-0.11
6,AGTCTCACGTGGGACG,0.32
7,TGCTTCACGTGTTTTT,0.22
8,TGAGACACGTGATTTG,0.07
9,TTGGTCACGTGGTGCC,0.08
10,GGAAGCACGTGAGGGG,0.06
11,TGGCCCACGTGGTTAG,-0.11
12,TCTCGCACGTGGGGGC,-0.09
13,GTTGGCACGTGCGTAG,0.02
14,AGTCTCACGTGAGGAT,0.35
15,CGCAGCACGTGGGGGT,-0.25
16,TGTGCCACGTGTAATT,0.07
17,ACCTACACGTGTTGGT,0.33
18,TTTGGCACGTGGGAAA,-0.11
19,AATTTCACGTGAGAAG,0.43
20,AAGTTCACGTGAGGAG,0.28
21,CGAGTCACGTGGTAGG,-0.04
22,ATTGACACGTGTAGAG,0.02
23,TTATTCACGTGGTTTA,0.21
24,GCCGTCACGTGGTTTG,0.09
25,GAATTCACGTGGTATG,0.27

row,Sequence,relative binding free energy [kcal/mol]
1,GTGCTCACGTGTTAGA,0.28
2,TCAGGCACGTGTCGGA,0.01
3,AGGGTCACGTGTCAGG,0.1
4,ATATACACGTGGGCTG,-0.18
5,TATTCCACGTGGTTTT,-0.08
6,AGGAGCACGTGTATGG,-0.17
7,ATTGGCACGTGTACTG,0.06
8,AGAATCACGTGTTTGT,0.12
9,TAGTGCACGTGCAGTT,0.12
10,TAGAGCACGTGATGGG,0
11,GGGTACACGTGTACTT,0.14
12,GTCGTCACGTGGTGGG,-0.05
13,GTTAGCACGTGGGTTC,-0.16
14,GTGTGCACGTGTGAAA,-0.01
15,TTATTCACGTGGTGGC,0.32
16,GTGAACACGTGGTTCG,0.11
17,TGTGACACGTGATGTG,0.06
18,TGCGGCACGTGGCTGT,-0.19
19,CGGGACACGTGTAGTA,0.03
20,AGCATCACGTGTGTAG,0
21,GCATGCACGTGTATGG,0.07
22,GGTGGCACGTGGCTTT,-0.08
23,GATGTCACGTGTGAGT,0.15
